Data reported in article PMC9365698 (2022).
One block for each binder: values may come before it.

Experiments:
[1] = molecular target: IL1RAP (Homo sapiens); experiment: SPR
[2] = molecular target: T1, EFNB1 (Homo sapiens); experiment: SPR
T1 chain: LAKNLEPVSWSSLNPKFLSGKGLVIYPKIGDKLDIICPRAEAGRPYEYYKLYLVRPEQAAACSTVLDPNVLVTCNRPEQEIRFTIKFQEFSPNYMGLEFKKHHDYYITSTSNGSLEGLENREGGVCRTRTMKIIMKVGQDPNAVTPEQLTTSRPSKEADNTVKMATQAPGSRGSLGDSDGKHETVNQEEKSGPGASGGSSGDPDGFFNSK

koff [1]: ~1.8 s⁻¹
B1: PTPRF (protein)
chain: not shown

koff [2]: ~1.3 s⁻¹
B2: EPHA4 (protein)
chain: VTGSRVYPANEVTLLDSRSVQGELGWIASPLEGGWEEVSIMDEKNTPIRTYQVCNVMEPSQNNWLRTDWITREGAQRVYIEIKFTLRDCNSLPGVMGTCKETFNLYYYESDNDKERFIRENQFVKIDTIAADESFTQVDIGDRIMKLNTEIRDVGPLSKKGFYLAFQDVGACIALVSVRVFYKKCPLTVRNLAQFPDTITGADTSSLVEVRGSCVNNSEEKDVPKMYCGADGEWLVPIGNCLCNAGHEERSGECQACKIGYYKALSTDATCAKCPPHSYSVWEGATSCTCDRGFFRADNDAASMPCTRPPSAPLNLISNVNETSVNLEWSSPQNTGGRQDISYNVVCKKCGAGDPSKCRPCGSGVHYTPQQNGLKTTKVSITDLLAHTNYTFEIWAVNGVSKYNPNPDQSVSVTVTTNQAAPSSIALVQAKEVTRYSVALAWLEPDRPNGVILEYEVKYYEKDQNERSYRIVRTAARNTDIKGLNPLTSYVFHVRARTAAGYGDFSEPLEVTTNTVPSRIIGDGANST
